T1: GST-RFWD3 (UniProt Q6PCD5)
T1 sequence: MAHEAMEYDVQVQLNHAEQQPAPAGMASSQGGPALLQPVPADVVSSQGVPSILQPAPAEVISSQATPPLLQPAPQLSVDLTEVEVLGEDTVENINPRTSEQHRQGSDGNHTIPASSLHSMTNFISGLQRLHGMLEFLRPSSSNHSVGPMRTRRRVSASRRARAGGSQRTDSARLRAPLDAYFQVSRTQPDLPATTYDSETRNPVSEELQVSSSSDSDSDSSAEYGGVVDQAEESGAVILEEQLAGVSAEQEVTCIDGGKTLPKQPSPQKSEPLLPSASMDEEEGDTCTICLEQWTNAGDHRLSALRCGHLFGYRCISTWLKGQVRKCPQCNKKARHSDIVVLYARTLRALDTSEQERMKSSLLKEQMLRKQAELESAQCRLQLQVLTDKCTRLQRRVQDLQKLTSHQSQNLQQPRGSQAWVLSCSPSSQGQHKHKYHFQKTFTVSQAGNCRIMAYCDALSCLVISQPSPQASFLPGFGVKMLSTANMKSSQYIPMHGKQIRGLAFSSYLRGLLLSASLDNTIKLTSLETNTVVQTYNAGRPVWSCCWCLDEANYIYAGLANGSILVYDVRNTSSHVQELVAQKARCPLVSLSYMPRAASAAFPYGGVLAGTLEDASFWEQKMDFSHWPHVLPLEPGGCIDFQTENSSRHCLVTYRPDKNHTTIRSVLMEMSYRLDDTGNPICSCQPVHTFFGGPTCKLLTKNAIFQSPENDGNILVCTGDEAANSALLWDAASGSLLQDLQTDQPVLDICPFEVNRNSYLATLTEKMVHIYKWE

T2: RFWD3-HA (UniProt Q6PCD5)
T2 sequence: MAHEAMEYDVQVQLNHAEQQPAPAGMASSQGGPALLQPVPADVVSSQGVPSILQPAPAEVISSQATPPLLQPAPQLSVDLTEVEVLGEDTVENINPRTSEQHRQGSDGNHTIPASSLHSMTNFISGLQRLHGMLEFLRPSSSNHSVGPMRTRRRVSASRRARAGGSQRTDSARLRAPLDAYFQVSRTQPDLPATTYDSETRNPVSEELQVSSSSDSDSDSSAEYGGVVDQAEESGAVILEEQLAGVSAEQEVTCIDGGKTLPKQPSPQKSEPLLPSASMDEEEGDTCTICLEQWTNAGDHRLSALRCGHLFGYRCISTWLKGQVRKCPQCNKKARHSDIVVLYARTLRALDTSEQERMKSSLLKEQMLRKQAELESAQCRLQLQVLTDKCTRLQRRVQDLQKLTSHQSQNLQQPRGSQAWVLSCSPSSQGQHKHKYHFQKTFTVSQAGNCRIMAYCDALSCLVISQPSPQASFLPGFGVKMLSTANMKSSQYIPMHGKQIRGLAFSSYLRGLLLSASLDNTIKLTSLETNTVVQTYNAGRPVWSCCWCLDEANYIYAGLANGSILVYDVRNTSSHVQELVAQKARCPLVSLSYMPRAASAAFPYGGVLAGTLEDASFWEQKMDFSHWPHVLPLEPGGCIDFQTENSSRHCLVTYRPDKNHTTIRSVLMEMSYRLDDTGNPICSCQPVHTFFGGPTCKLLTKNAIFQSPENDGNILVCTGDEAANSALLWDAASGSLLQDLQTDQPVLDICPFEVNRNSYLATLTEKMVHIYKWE

B1: His-UHRF1 truncation 1–755 (domain or fragment, UniProt Q96T88-1 1-755)
chain: MWIQVRTMDGRQTHTVDSLSRLTKVEELRRKIQELFHVEPGLQRLFYRGKQMEDGHTLFDYEVRLNDTIQLLVRQSLVLPHSTKERDSELSDTDSGCCLGQSESDKSSTHGEAAAETDSRPADEDMWDETELGLYKVNEYVDARDTNMGAWFEAQVVRVTRKAPSRDEPCSSTSRPALEEDVIYHVKYDDYPENGVVQMNSRDVRARARTIIKWQDLEVGQVVMLNYNPDNPKERGFWYDAEISRKRETRTARELYANVVLGDDSLNDCRIIFVDEVFKIERPGEGSPMVDNPMRRKSGPSCKHCKDDVNRLCRVCACHLCGGRQDPDKQLMCDECDMAFHIYCLDPPLSSVPSEDEWYCPECRNDASEVVLAGERLRESKKKAKMASATSSSQRDWGKGMACVGRTKECTIVPSNHYGPIPGIPVGTMWRFRVQVSESGVHRPHVAGIHGRSNDGAYSLVLAGGYEDDVDHGNFFTYTGSGGRDLSGNKRTAEQSCDQKLTNTNRALALNCFAPINDQEGAEAKDWRSGKPVRVVRNVKGGKNSKYAPAEGNRYDGIYKVVKYWPEKGKSGFLVWRYLLRRDDDEPGPWTKEGKDRIKKLGLTMQYPEGYLEALANREREKENSKREEEEQQEGGFASPRTGKGKWKRKSAGGGPSRAGSPRRTSKKTKVEPYSLTAQQSSLIREDKSNAKLWNEVLASLKDRPASGSPFQLFLSKVEETFQCICCQELVFRPITTVCQHNVCKDCLDRSFRAQ
B2: His-UHRF1 truncation 1–724 (domain or fragment, UniProt Q96T88-1 1-724)
chain: MWIQVRTMDGRQTHTVDSLSRLTKVEELRRKIQELFHVEPGLQRLFYRGKQMEDGHTLFDYEVRLNDTIQLLVRQSLVLPHSTKERDSELSDTDSGCCLGQSESDKSSTHGEAAAETDSRPADEDMWDETELGLYKVNEYVDARDTNMGAWFEAQVVRVTRKAPSRDEPCSSTSRPALEEDVIYHVKYDDYPENGVVQMNSRDVRARARTIIKWQDLEVGQVVMLNYNPDNPKERGFWYDAEISRKRETRTARELYANVVLGDDSLNDCRIIFVDEVFKIERPGEGSPMVDNPMRRKSGPSCKHCKDDVNRLCRVCACHLCGGRQDPDKQLMCDECDMAFHIYCLDPPLSSVPSEDEWYCPECRNDASEVVLAGERLRESKKKAKMASATSSSQRDWGKGMACVGRTKECTIVPSNHYGPIPGIPVGTMWRFRVQVSESGVHRPHVAGIHGRSNDGAYSLVLAGGYEDDVDHGNFFTYTGSGGRDLSGNKRTAEQSCDQKLTNTNRALALNCFAPINDQEGAEAKDWRSGKPVRVVRNVKGGKNSKYAPAEGNRYDGIYKVVKYWPEKGKSGFLVWRYLLRRDDDEPGPWTKEGKDRIKKLGLTMQYPEGYLEALANREREKENSKREEEEQQEGGFASPRTGKGKWKRKSAGGGPSRAGSPRRTSKKTKVEPYSLTAQQSSLIREDKSNAKLWNEVLASLKDRPASGSPFQLFLSKVEETFQC
B3: His-UHRF1 truncation 1–753 (domain or fragment, UniProt Q96T88-1 1-753)
chain: MWIQVRTMDGRQTHTVDSLSRLTKVEELRRKIQELFHVEPGLQRLFYRGKQMEDGHTLFDYEVRLNDTIQLLVRQSLVLPHSTKERDSELSDTDSGCCLGQSESDKSSTHGEAAAETDSRPADEDMWDETELGLYKVNEYVDARDTNMGAWFEAQVVRVTRKAPSRDEPCSSTSRPALEEDVIYHVKYDDYPENGVVQMNSRDVRARARTIIKWQDLEVGQVVMLNYNPDNPKERGFWYDAEISRKRETRTARELYANVVLGDDSLNDCRIIFVDEVFKIERPGEGSPMVDNPMRRKSGPSCKHCKDDVNRLCRVCACHLCGGRQDPDKQLMCDECDMAFHIYCLDPPLSSVPSEDEWYCPECRNDASEVVLAGERLRESKKKAKMASATSSSQRDWGKGMACVGRTKECTIVPSNHYGPIPGIPVGTMWRFRVQVSESGVHRPHVAGIHGRSNDGAYSLVLAGGYEDDVDHGNFFTYTGSGGRDLSGNKRTAEQSCDQKLTNTNRALALNCFAPINDQEGAEAKDWRSGKPVRVVRNVKGGKNSKYAPAEGNRYDGIYKVVKYWPEKGKSGFLVWRYLLRRDDDEPGPWTKEGKDRIKKLGLTMQYPEGYLEALANREREKENSKREEEEQQEGGFASPRTGKGKWKRKSAGGGPSRAGSPRRTSKKTKVEPYSLTAQQSSLIREDKSNAKLWNEVLASLKDRPASGSPFQLFLSKVEETFQCICCQELVFRPITTVCQHNVCKDCLDRSFR
B4: His-UHRF1 truncation 1–745 (domain or fragment, UniProt Q96T88-1 1-745)
chain: MWIQVRTMDGRQTHTVDSLSRLTKVEELRRKIQELFHVEPGLQRLFYRGKQMEDGHTLFDYEVRLNDTIQLLVRQSLVLPHSTKERDSELSDTDSGCCLGQSESDKSSTHGEAAAETDSRPADEDMWDETELGLYKVNEYVDARDTNMGAWFEAQVVRVTRKAPSRDEPCSSTSRPALEEDVIYHVKYDDYPENGVVQMNSRDVRARARTIIKWQDLEVGQVVMLNYNPDNPKERGFWYDAEISRKRETRTARELYANVVLGDDSLNDCRIIFVDEVFKIERPGEGSPMVDNPMRRKSGPSCKHCKDDVNRLCRVCACHLCGGRQDPDKQLMCDECDMAFHIYCLDPPLSSVPSEDEWYCPECRNDASEVVLAGERLRESKKKAKMASATSSSQRDWGKGMACVGRTKECTIVPSNHYGPIPGIPVGTMWRFRVQVSESGVHRPHVAGIHGRSNDGAYSLVLAGGYEDDVDHGNFFTYTGSGGRDLSGNKRTAEQSCDQKLTNTNRALALNCFAPINDQEGAEAKDWRSGKPVRVVRNVKGGKNSKYAPAEGNRYDGIYKVVKYWPEKGKSGFLVWRYLLRRDDDEPGPWTKEGKDRIKKLGLTMQYPEGYLEALANREREKENSKREEEEQQEGGFASPRTGKGKWKRKSAGGGPSRAGSPRRTSKKTKVEPYSLTAQQSSLIREDKSNAKLWNEVLASLKDRPASGSPFQLFLSKVEETFQCICCQELVFRPITTVCQHNVCK
B5: His-UHRF1 truncation 1–750 (domain or fragment, UniProt Q96T88-1 1-750)
chain: MWIQVRTMDGRQTHTVDSLSRLTKVEELRRKIQELFHVEPGLQRLFYRGKQMEDGHTLFDYEVRLNDTIQLLVRQSLVLPHSTKERDSELSDTDSGCCLGQSESDKSSTHGEAAAETDSRPADEDMWDETELGLYKVNEYVDARDTNMGAWFEAQVVRVTRKAPSRDEPCSSTSRPALEEDVIYHVKYDDYPENGVVQMNSRDVRARARTIIKWQDLEVGQVVMLNYNPDNPKERGFWYDAEISRKRETRTARELYANVVLGDDSLNDCRIIFVDEVFKIERPGEGSPMVDNPMRRKSGPSCKHCKDDVNRLCRVCACHLCGGRQDPDKQLMCDECDMAFHIYCLDPPLSSVPSEDEWYCPECRNDASEVVLAGERLRESKKKAKMASATSSSQRDWGKGMACVGRTKECTIVPSNHYGPIPGIPVGTMWRFRVQVSESGVHRPHVAGIHGRSNDGAYSLVLAGGYEDDVDHGNFFTYTGSGGRDLSGNKRTAEQSCDQKLTNTNRALALNCFAPINDQEGAEAKDWRSGKPVRVVRNVKGGKNSKYAPAEGNRYDGIYKVVKYWPEKGKSGFLVWRYLLRRDDDEPGPWTKEGKDRIKKLGLTMQYPEGYLEALANREREKENSKREEEEQQEGGFASPRTGKGKWKRKSAGGGPSRAGSPRRTSKKTKVEPYSLTAQQSSLIREDKSNAKLWNEVLASLKDRPASGSPFQLFLSKVEETFQCICCQELVFRPITTVCQHNVCKDCLDR
B6: FLAG-UHRF1^NR2A (protein, UniProt Q96T88-1 1-793)
chain: MWIQVRTMDGRQTHTVDSLSRLTKVEELRRKIQELFHVEPGLQRLFYRGKQMEDGHTLFDYEVRLNDTIQLLVRQSLVLPHSTKERDSELSDTDSGCCLGQSESDKSSTHGEAAAETDSRPADEDMWDETELGLYKVNEYVDARDTNMGAWFEAQVVRVTRKAPSRDEPCSSTSRPALEEDVIYHVKYDDYPENGVVQMNSRDVRARARTIIKWQDLEVGQVVMLNYNPDNPKERGFWYDAEISRKRETRTARELYANVVLGDDSLNDCRIIFVDEVFKIERPGEGSPMVDNPMRRKSGPSCKHCKDDVNRLCRVCACHLCGGRQDPDKQLMCDECDMAFHIYCLDPPLSSVPSEDEWYCPECRNDASEVVLAGERLRESKKKAKMASATSSSQRDWGKGMACVGRTKECTIVPSNHYGPIPGIPVGTMWRFRVQVSESGVHRPHVAGIHGRSNDGAYSLVLAGGYEDDVDHGNFFTYTGSGGRDLSGNKRTAEQSCDQKLTNTNRALALNCFAPINDQEGAEAKDWRSGKPVRVVRNVKGGKNSKYAPAEGNRYDGIYKVVKYWPEKGKSGFLVWRYLLRRDDDEPGPWTKEGKDRIKKLGLTMQYPEGYLEALANREREKENSKREEEEQQEGGFASPRTGKGKWKRKSAGGGPSRAGSPRRTSKKTKVEPYSLTAQQSSLIREDKSNAKLWNEVLASLKDRPASGSPFQLFLSKVEETFQCICCQELVFRPITTVCQHNVCKDCLDRSFRAQVFSCPACRYDLGRSYAMQVNQPLQTVLNQLFPGYGAGA

These are yes or no findings as the source states them, for the method shown. For part of these data: Binding seen in cells or lysates may run through a third protein. Where a sequence is shown, tags or fusion partners need not be part of it.

One experiment deals with T1, GST-RFWD3. In words: pull-down; GST pull-down: purified GST-RFWD3 on Glutathione resin, purified His-tagged UHRF1 proteins, 3 h at 4 °C in BCA buffer (20 mM Tris-HCl pH 7.4, 100 mM NaCl); washes with 300 mM NaCl; western blotting; both purified. Background: Immunoblotting shows a protein as a band on a membrane.
Take B1: the binding entry is listed as “no binding”. Regarding B2, the binding entry is “no binding”. In the case of B3, the binding result is given as “no binding”. Take B4: the binding entry is “no binding”.

Take B5: the binding entry was “no binding”.

For the next experiment, the target named is T2, RFWD3-HA. Description: co-IP; ectopically expressed tagged proteins in HEK293T; lysis in NETN buffer (20 mM Tris-HCl pH 7.5, 1 mM EDTA, 100 mM NaCl, 0.5% NP-40); anti-FLAG or anti-HA affinity beads, 3 h, 4 °C; washes with NETN with 200 mM NaCl; western blotting.
Take B6: the binding result is “no binding”.

For the origin of these results see publication PMC12677587.
